Measurements as given in paper PMC4336329 (PLoS ONE, 2015).
Hit rate of the full screen: of about 310,000 compounds, about 2,200 (0.71%) showed an effect of 50% or more. The effect is printed as a negative number. The list shows a part of the results.

Biological target: human ether-à-go-go-related gene (hERG) potassium channel (human, UniProt Q12809)
Assay: primary screen, population patch clamp on CHO cells stably expressing hERG

human ether-à-go-go-related gene (hERG) potassium channel, sequence (Q12809 whole entry, looked up): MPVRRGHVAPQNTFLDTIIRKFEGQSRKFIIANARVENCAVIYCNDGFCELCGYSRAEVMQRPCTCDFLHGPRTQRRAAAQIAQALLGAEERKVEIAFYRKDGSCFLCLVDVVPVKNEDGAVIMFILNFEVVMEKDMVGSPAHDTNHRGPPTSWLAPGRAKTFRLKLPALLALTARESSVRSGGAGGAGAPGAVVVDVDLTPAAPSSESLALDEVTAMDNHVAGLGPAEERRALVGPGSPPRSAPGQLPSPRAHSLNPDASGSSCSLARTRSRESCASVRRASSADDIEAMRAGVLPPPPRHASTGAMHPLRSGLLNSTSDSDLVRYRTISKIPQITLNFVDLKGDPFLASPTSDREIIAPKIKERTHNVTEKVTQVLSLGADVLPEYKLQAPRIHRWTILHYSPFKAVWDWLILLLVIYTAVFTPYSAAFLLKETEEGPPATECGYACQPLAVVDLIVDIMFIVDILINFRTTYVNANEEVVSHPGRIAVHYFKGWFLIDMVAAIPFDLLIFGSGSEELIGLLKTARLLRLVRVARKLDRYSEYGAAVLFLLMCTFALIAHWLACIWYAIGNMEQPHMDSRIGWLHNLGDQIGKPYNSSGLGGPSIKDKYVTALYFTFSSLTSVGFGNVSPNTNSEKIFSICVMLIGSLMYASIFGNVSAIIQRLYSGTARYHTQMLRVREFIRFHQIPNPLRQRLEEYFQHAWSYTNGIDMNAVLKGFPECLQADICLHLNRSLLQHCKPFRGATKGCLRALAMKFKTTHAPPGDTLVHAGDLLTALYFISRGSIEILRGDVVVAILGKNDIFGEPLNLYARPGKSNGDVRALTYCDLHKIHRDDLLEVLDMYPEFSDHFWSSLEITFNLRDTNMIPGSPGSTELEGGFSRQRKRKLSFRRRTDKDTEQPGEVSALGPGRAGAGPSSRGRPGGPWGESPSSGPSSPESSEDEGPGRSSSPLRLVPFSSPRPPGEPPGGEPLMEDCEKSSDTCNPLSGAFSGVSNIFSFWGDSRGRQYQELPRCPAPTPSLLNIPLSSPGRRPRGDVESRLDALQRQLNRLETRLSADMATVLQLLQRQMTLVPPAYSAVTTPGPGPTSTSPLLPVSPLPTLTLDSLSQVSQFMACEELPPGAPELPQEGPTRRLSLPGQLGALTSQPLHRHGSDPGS

Row | Compound | hERG current change (%, negative = inhibition) at 1uM
1 | NC(=O)C1Cc2ccccc2CN1S(=O)(=O)c1cccs1 (centres unmarked) | 10.7%
2 | CCC(C)(C)NC(=O)CN(CC1CCCO1)C(=O)CNS(=O)(=O)c1ccccc1 (centres unmarked) | 4.33%
3 | Cc1[nH]c(=O)c(C(=O)/C=C/c2ccccc2)c2c1CCCC2 | 3.27%
4 | COc1cc(OC)cc(C(=O)Nc2ccc3c(c2)COC3=O)c1 | 8.57%
5 | CCCc1ccc2oc(C(=O)N3CCN(CC(=O)NC(C)C)CC3)c(C)c2c1 | -1.69%
6 | O=C(Cc1ccc(Cl)cc1Cl)OCC(=O)c1ccc[nH]1 | 13.2%
7 | C=CCSc1nnc2c(n1)OC(C)=Nc1ccc(Br)cc1-2 | 14.5%
8 | Cc1cc(N2CCN(C)CC2)nc2ccc(NC(=O)c3cccnc3Cl)cc12 | 11.2%
9 | N/C(=N\OC(=O)c1cccs1)c1cccc(Br)c1 | 15.1%
10 | CC(=O)OCCN(C)c1cc(SC(C)C)c2nonc2c1[N+](=O)[O-] | 1.97%
11 | Cc1ccc(C(=O)CS(C)(=O)=O)cc1 | 17.4%
12 | O=C(c1ccc(F)cc1)N1CCC(C(=O)N(Cc2ccccc2)c2ccccc2)CC1 | 10.7%
13 | CCCc1cc(=O)[nH]c(SCC(=O)c2cc(C)n(-c3cc(C)on3)c2C)n1 | -3.28%
14 | CC12CCC(=O)N1C(C(=O)Nc1ccc(S(=O)(=O)N3CCCCC3)cc1)CS2 (centres unmarked) | 6.36%
15 | COc1ccc(C(=O)NC(=S)N2C[C@H]3C[C@H](C2)c2cccc(=O)n2C3)cc1 | -2.32%
16 | O=C(N/N=C/c1cccc([N+](=O)[O-])c1)C1CC(=O)N(c2ccc(F)cc2)C1 (centres unmarked) | -36%
17 | COc1ccc([C@@H]2C[C@H](c3ccccc3)Oc3cc(OC)c(OC)c(OC)c32)cc1 | 12.8%
18 | COc1ccccc1OC(C)C(=O)Nc1ccccc1C(=O)NCC1CCCO1 (centres unmarked) | 11.3%
19 | O=C(Cc1c(O)c2ccccc2[nH]c1=O)NCc1ccccc1 | 5.58%
20 | CCN(CC)S(=O)(=O)c1cccc(-c2csc(C)n2)c1 | 9.84%
21 | CCCC1CCc2c(sc(N)c2C(N)=O)C1 (centres unmarked) | 4.68%
22 | COc1ccc(C2=NN(C(=O)CSc3nnc(C)c(=O)n3N)C(c3ccco3)C2)cc1 (centres unmarked) | -0.0705%
23 | CCOC(=O)C1=C(C)NC2=C(C(=O)c3ccccc32)C1c1ccc([N+](=O)[O-])o1 (centres unmarked) | 3.67%

Row | Compound | hERG current change (%, negative = inhibition) at 1uM
24 | O=C(CC1CCCC1)NNC(=O)c1ccc(Br)cc1 | 12.3%
25 | C=CCSC1=N/C(=C/c2ccsc2)C(=O)N1c1ccccc1 | 14.3%
26 | Cc1cc(OCC(=O)NCCc2cccc(F)c2)c2c(C)cc(=O)oc2c1 | -2.12%
27 | Cc1noc(C)c1COC(=O)CCOc1ccccc1 | -8.29%
28 | Cc1ccc(/C(N)=N/OC(=O)Cc2cccs2)cc1 | 3.81%
29 | CCOC(=O)c1cnn(-c2nc(OC)cc(OC)n2)c1C(F)(F)F | 0.651%
30 | O=C(/C=C/c1ccc(Cl)c(Cl)c1)n1cccn1 | 5.43%
31 | Cc1ccc(/C=N\NC(=O)c2cncc(Br)c2)o1 | 17%
32 | O=C(CN1C(=O)c2ccccc2C1=O)Nc1cccc(S(=O)(=O)Nc2ccccc2Cl)c1 | 16.2%
33 | O=C(O)c1cc(-c2ccc3c(c2)OCO3)nc2ccc(Cl)cc12 | 12.5%
34 | CN1CCN(C(=O)c2ccc(Cn3cc(Cl)cn3)o2)CC1.Cl | 16.1%
35 | Cc1ccsc1C(=O)NCc1ccc(F)cc1 | 9.8%
36 | Cc1ccc(S(=O)(=O)N2CCOCC2)cc1C(=O)NCc1cn2ccsc2n1 | 13.7%
37 | O=C(CCCc1nc2ccccc2s1)Nc1ccccc1 | 5.44%
38 | Cc1cc(NCCCn2ccnc2)n2nc(C)c(-c3ccc(Cl)cc3)c2n1 | -16.8%
39 | CCN(CC)S(=O)(=O)c1cccc(C(=O)OCC(=O)c2ccc3c(c2)OCCO3)c1 | 8.89%
40 | O=C(CSc1nnc(-c2ccccn2)o1)Nc1ccccc1 | 0.0597%
41 | Cc1ccc2c(c1)C1CN(C)CCC1N2S(=O)(=O)c1cc(C(F)(F)F)ccc1Cl (centres unmarked) | 10.9%
42 | Cc1nc(CSc2nnc(N)s2)cs1 | 11.8%
43 | CC1CCCC(NC(=O)c2n[nH]c(=O)c3ccccc23)C1C (centres unmarked) | 7.26%
44 | Cc1cc(C)cc(NC(=O)N2CCC(NC(=O)c3ccco3)CC2)c1 | 12.8%
45 | CC1=CC2=NC(=O)/C(=C\c3cccn3CCOc3cc(C)cc(C)c3)C(=N)N2O1 | 4.96%
46 | CCCc1nc2ccc(Br)cc2c(=O)n1-c1ccc([N+](=O)[O-])c(C(F)(F)F)c1 | 9.78%

Row | Compound | hERG current change (%, negative = inhibition) at 1uM
47 | NC(=O)c1cc([N+](=O)[O-])ccc1NCc1cnccn1 | 11.6%
48 | Cc1cccc(Nc2nnc(SCC(=O)NCc3cccs3)s2)c1C | 11.4%
49 | O=S(=O)(N/N=C/c1ccc(N2CCOCC2)cc1)c1ccccc1 | -2.78%
50 | Cc1cccc(NC(=O)NC(C)CCc2ccccc2)c1 (centres unmarked) | 0.507%
51 | O=C(NCCc1ccccc1)C1CCCN(C(=O)Nc2ccc(F)cc2)C1 (centres unmarked) | 4.75%
52 | O=S(=O)(Nc1cccc(-c2ccc3nncn3n2)c1)c1ccccc1F | 6.36%
53 | O=C(Nn1cc(C(=O)Nc2ccccc2F)c2ccccc2c1=O)c1cnccn1 | 4.74%
54 | CC1=CC(C)(C)Nc2ccc(C)cc21 | -27.6%
55 | CN=Cc1nc(-c2ccccc2)oc1O | 12.9%
56 | CC1CCC(C(C)C)C(OC(=O)C2=C3c4ccccc4S(=O)(=O)N3CC2)C1 (centres unmarked) | 14%
57 | CCN(CC(=O)NCc1ccncc1)S(=O)(=O)c1ccccc1 | 8.27%
58 | CCOc1ccccc1CN1CCN(Cc2ccc3cc(F)ccc3n2)CC1CCO (centres unmarked) | -44.1%
59 | Cc1c(CCOC(=O)c2ccccc2)sc[n+]1Cc1ccccc1.[Cl-] | -7.52%
60 | CC1(C)CC(=O)c2c(Cc3ccccc3)n[nH]c2C1 | 13.3%
61 | COCCNC(=S)NCc1cccs1 | 19.2%
62 | CC(NC(=O)c1cn(C(C)c2ccccc2F)nn1)c1ccncc1 (centres unmarked) | 4.51%
63 | CCNC(=O)CSC1=N/C(=C\c2ccc(O)c(OCC)c2)C(=O)N1c1ccc(OC(F)F)cc1 | 12%
64 | O=c1[nH]c(Cc2cccs2)nc2ccccc12 | 11.2%
65 | CC1=NN(C(=O)CCCc2ccccc2)C(O)(C(F)(F)F)C1 (centres unmarked) | 10.3%
66 | COCCn1c(SCC(=O)Nc2ccc(C(N)=O)cc2)nc2c([nH]c3ccccc32)c1=O | 13.5%
67 | O=C1CC(N2CCN(c3ccccc3)CC2)C(=O)N1c1ccc(Cl)cc1 (centres unmarked) | 7.95%
68 | O=S(=O)(Nc1c(O)ccc2ccccc12)c1ccccc1 | 7.42%
69 | COc1ccc(OC)c(/C=N/NC(=O)CNC(=O)c2ccc(S(=O)(=O)N3CCOCC3)cc2)c1 | 5.07%

Row | Compound | hERG current change (%, negative = inhibition) at 1uM
70 | Cc1cc(C)cc(NC(=O)CC23CC4CC(C2)CC(n2nnc(C)n2)(C4)C3)c1 | -3.48%
71 | Cl.N=c1sccn1CC(=O)Nc1cc(Cl)ccc1[N+](=O)[O-] | 14.5%
72 | O=C(O)c1ccc(NC(=S)NC(=O)c2ccc(-c3ccc(Br)cc3)o2)cc1 | 19.6%
73 | COc1ccc(-c2nc3ccccc3c(=O)n2-c2ccc(OC)cc2)cc1 | 13.8%
74 | COc1ccc(CC(=O)N/N=C(\C)CC(=O)NCc2ccco2)cc1OC | 17.4%
75 | Cc1nn(-c2ccccc2)c(N)c1N=Nc1ccc(Cl)cc1 | 7.22%
76 | COc1ccc(N2CCN(C(=O)[C@@H](NC(=O)c3cc(OC)cc(OC)c3)C(C)C)CC2)cc1 | 15.8%
77 | O=C(CCNS(=O)(=O)c1ccccc1)NCCSc1ccc(Br)cc1 | 10.4%
78 | CCOCc1c(C(=O)N2CCN(Cc3ccc(Br)s3)CC2)oc2ccccc12 | -11.4%
79 | CCn1c(SCC(=O)N2CCC(C)CC2)nc2c(c1=O)SC(C)C2 (centres unmarked) | 1.53%
80 | Cc1ccc2c(c1)C(=O)C(=O)N2CC(=O)OC(C)C | 8.55%
81 | Cc1c(NC(=O)C(C)OC(=O)Cc2ccccc2)c(=O)n(-c2ccccc2)n1C (centres unmarked) | 18.2%
82 | CC(Cc1ccccc1)/[N+]([O-])=C\c1ccc(C(F)(F)F)cc1 (centres unmarked) | 0.398%
83 | CCC(=Nc1ccc(OC)cc1OC)c1c(O)n(C)c(=O)n(C)c1=O | 3.57%
84 | CC(=O)NCc1cn2c(C)csc2n1 | 1.56%
85 | O=C(CNc1cccc([N+](=O)[O-])c1)N/N=C/c1ccc(F)cc1 | 9.66%
86 | N#CC(c1cccnc1)N1CCOCC1 (centres unmarked) | 10.1%
87 | O=C(NCc1ccccc1)C(c1ccc(F)cc1)N(Cc1ccco1)C(=O)c1ccccn1 (centres unmarked) | 2.13%
88 | CC[n+]1c(/C=C(\C)SC)sc2ccccc21.COS(=O)(=O)[O-] | 9.66%
89 | O=C(CSc1nc2c(sc3ccccc32)c(=O)n1-c1ccccc1)NCc1ccco1 | 3.96%
